Source: the supplement of paper PMC7826260
The list shows a part of the results. Cleavage of a single-stranded DNA pool by Rep nickase domains was read by sequencing for 1 h at 37 °C with 3 µM enzyme; only the middle of the 90-letter strands is printed. A value is the log2 ratio of uncut reads to the pool without enzyme; strong cutting gives strongly negative numbers. There is no active / inactive call. Because reads are shares of a total, they shift together, so uncut sequences can rise above 0 when many others are cut.

What was measured:
Assay in all cases: uncleaved DNA left, log2 of reads against the no-enzyme library (log2 ratio); higher = less cleavage (more negative = more Rep cleavage of the k-mer); sequences stand for … in CTCGTCCG…ACCGGAGA
[1] = system: T1, Rep nickase domain of Muscovy duck circovirus
T1 sequence (protein, residues 1-111, tag omitted): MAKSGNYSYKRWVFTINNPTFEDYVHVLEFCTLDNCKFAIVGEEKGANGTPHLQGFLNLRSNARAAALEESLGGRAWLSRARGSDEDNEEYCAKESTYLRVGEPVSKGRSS
Description: (§1)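 A pool of 90-nt single-stranded DNAs with seven random bases just before the constant AC of the nick site (name = the seven bases) was cut by 3 µM recombinant His6-SUMO-tagged Rep nickase domain (300 nM DNA, 50 mM HEPES pH 8.0, 50 mM NaCl, 1 mM MnCl2, 1 h, 37 °C, three replicates). Uncut DNA was amplified and sequenced.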

[2] = system: T2, Rep nickase domain of banana bunchy top virus
T2 sequence (protein, residues 1-94, tag omitted): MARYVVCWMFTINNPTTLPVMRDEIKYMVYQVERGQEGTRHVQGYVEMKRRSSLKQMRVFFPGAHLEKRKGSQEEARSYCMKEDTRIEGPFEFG
Description: as §1

[3] = system: T3, Rep nickase domain of cabbage leaf curl virus
T3 sequence (protein, residues 1-116, tag omitted): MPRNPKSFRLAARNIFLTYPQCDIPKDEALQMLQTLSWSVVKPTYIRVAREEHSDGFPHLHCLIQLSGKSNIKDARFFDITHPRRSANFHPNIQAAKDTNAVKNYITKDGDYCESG
Description: as §1

[4] = system: T4, Rep nickase domain of chickpea chlorotic dwarf virus
T4 sequence (protein, residues 1-124, tag omitted): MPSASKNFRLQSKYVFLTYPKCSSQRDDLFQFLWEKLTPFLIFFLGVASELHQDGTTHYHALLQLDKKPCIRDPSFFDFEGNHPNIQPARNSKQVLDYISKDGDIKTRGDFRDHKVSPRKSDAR
Description: as §1

[5] = system: T5, Rep nickase domain of faba bean necrotic yellows virus
T5 sequence (protein, residues 1-98, tag omitted): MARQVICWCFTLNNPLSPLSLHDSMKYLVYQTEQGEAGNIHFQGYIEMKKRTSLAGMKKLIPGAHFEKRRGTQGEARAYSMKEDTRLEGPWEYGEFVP
Description: as §1

[6] = system: T6, Rep nickase domain of maize striate mosaic virus
T6 sequence (protein, residues 1-117, tag omitted): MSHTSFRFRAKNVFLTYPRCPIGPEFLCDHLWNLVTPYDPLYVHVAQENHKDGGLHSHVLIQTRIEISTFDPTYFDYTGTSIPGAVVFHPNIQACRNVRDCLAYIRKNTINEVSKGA
Description: as §1

[7] = system: T7, Rep nickase domain of porcine circovirus 2
T7 sequence (protein, residues 2-116, tag omitted): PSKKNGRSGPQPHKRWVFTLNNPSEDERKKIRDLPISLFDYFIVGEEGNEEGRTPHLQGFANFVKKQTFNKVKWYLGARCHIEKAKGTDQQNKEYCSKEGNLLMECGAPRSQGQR
Description: as §1

[8] = system: T8, Rep nickase domain of tomato golden mosaic virus
T8 sequence (protein, residues 1-124, tag omitted): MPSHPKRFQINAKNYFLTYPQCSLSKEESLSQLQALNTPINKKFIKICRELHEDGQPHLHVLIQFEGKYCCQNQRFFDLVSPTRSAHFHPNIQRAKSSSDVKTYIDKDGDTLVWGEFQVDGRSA
Description: as §1

[9] = system: T9, Rep nickase domain of tomato yellow leaf curl virus
T9 sequence (protein, residues 1-136, tag omitted): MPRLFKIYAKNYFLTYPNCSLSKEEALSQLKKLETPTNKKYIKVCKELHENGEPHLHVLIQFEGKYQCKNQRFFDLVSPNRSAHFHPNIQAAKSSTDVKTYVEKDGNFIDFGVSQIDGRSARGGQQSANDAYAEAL
Description: as §1

[10] = system: T10, Rep nickase domain of wheat dwarf virus
T10 sequence (protein, residues 1-137, tag omitted): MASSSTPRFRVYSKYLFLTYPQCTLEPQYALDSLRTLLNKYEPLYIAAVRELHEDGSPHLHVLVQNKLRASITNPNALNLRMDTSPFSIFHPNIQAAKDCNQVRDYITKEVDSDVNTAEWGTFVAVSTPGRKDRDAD
Description: as §1

Sequence | uncleaved DNA left (log2) [1] | uncleaved DNA left (log2) [2] | uncleaved DNA left (log2) [3] | uncleaved DNA left (log2) [4] | uncleaved DNA left (log2) [5] | uncleaved DNA left (log2) [6] | uncleaved DNA left (log2) [7] | uncleaved DNA left (log2) [8] | uncleaved DNA left (log2) [9] | uncleaved DNA left (log2) [10]
CGTGACG | 0.0677 | -0.142 | -0.659 | -0.443 | -0.0337 | -0.691 | -0.027 | -0.175 | -0.14 | -0.105
GTTTCAA | 0.0707 | 0.072 | 0.314 | 0.845 | -0.137 | 1.77 | -0.0111 | 0.185 | 0.0733 | 0.078
ATAATCT | -0.0164 | 0.035 | 0.309 | -2.44 | 0.0454 | -0.63 | -0.224 | 0.0447 | 0.0548 | 0.0344
TGGCTTG | -0.0699 | -0.0866 | -0.128 | -0.217 | -0.0731 | 0.168 | 0.0828 | -0.0604 | -0.0817 | -0.225
ACGGATC | 0.106 | -0.0268 | -0.0011 | 0.408 | 0.00766 | 0.499 | 0.182 | -0.0512 | -0.0529 | 0.0318
ACTGCCT | -0.0726 | -0.0648 | -0.0296 | 0.0268 | 0.0297 | 0.273 | -0.114 | 0.121 | -0.0769 | -0.00763
TAACGCA | -0.016 | -0.0538 | -1.04 | -2.4 | -0.101 | -0.773 | -0.0827 | -0.104 | 0.00927 | -0.273
GTGATTC | 0.0885 | 0.0767 | 0.285 | 0.911 | -0.0534 | 1.82 | 0.193 | 0.118 | 0.102 | 0.0486
TGTAATC | -0.0165 | 0.0735 | 0.401 | 0.648 | 0.003 | 0.876 | 0.0874 | -0.00999 | 0.055 | 0.145
CATGACG | 0.00774 | -0.159 | -0.821 | -0.257 | -0.00549 | -1.19 | 0.0542 | -0.138 | -0.0441 | -0.142
TGATCTA | -0.0784 | 0.0439 | 0.197 | -0.3 | -0.0634 | 0.343 | -0.158 | -0.112 | 0.0815 | 0.103
CGATTCA | 0.0251 | 0.0599 | 0.06 | -0.641 | 0.129 | -0.289 | 0.0534 | -0.0174 | 0.102 | 0.176
TCTCGGT | 0.0601 | 0.0132 | 0.441 | 0.816 | -0.103 | 1.23 | 0.0653 | 0.0684 | -0.00567 | -0.097
AATTAGC | -0.0433 | -0.0178 | -0.572 | -0.72 | -0.0167 | -1.16 | 0.025 | -0.11 | -0.0263 | -0.113
CCTATCA | -0.0237 | -0.0394 | 0.418 | 0.231 | -0.0248 | 0.372 | -0.0764 | -0.169 | 0.0517 | 0.165
CGACCTA | -0.0961 | 0.0691 | -0.0823 | 0.146 | -0.0284 | 0.48 | -0.231 | -0.248 | -0.149 | -0.0669

Sequence | uncleaved DNA left (log2) [1] | uncleaved DNA left (log2) [2] | uncleaved DNA left (log2) [3] | uncleaved DNA left (log2) [4] | uncleaved DNA left (log2) [5] | uncleaved DNA left (log2) [6] | uncleaved DNA left (log2) [7] | uncleaved DNA left (log2) [8] | uncleaved DNA left (log2) [9] | uncleaved DNA left (log2) [10]
GGCGTTG | 0.0155 | -0.0678 | -0.0916 | 0.422 | -0.122 | 1.44 | -0.0377 | -0.0304 | -0.143 | -0.152
CGGACAC | 0.0253 | -0.0489 | 0.747 | 1.76 | -0.0858 | 2.14 | 0.158 | -0.132 | -0.0721 | 0.0457
CTAGTAT | 0.0574 | 0.112 | 0.257 | 0.0223 | 0.0352 | 0.0933 | 0.0668 | 0.0464 | 0.0796 | -0.0108
GAAGGGA | 0.136 | 0.0702 | 0.372 | 0.915 | 0.0881 | 0.869 | 0.119 | 0.122 | 0.0865 | 0.0727
CGAGAAG | -0.0259 | -0.0552 | -0.542 | -0.395 | 0.0101 | -0.987 | 0.165 | 0.0916 | 0.0886 | -0.12
TACTTGG | 0.111 | 0.0203 | -0.182 | -0.325 | 0.0169 | -0.755 | 0.124 | 0.00787 | 0.0641 | 0.0172
AATGGTA | 0.114 | -0.00626 | 0.172 | 0.705 | -0.0129 | 1.15 | -0.0459 | 0.0993 | -0.0104 | 0.0342
GGCTTCC | 0.0806 | -0.0132 | 0.498 | 1.14 | 0.0471 | 1.8 | 0.111 | 0.0264 | 0.00141 | 0.162
CCCTGGT | -0.355 | -0.246 | -0.104 | -0.127 | -0.213 | -0.224 | -1.39 | 0.0847 | -0.0431 | -0.0455
TATCTAA | 0.0224 | 0.142 | 0.204 | -0.223 | 0.0936 | -0.238 | -0.0409 | -0.0198 | 0.0877 | 0.154
CGTCTAA | -0.0442 | 0.0104 | -0.165 | -0.0961 | -0.05 | -0.0843 | -0.116 | -0.0918 | -0.0441 | -0.0302
GGATAAC | 0.232 | 0.115 | 0.53 | 1.21 | 0.0201 | 1.83 | 0.199 | 0.189 | 0.159 | 0.27
AATCCCT | 0.0897 | -0.0972 | -0.128 | -2.49 | 0.162 | 0.0188 | -1.93 | 0.0288 | 0.125 | 0.128
GACCTCA | 0.00726 | 0.0149 | 0.148 | -0.0486 | -0.00138 | 0.566 | -0.0119 | 0.0835 | 0.0612 | 0.0829
TAAACGC | 0.121 | 0.0428 | -0.568 | -1.81 | 0.0693 | -1.03 | 0.155 | 0.0228 | 0.0484 | -0.173
